Source: the supplement of paper PMC3334620
Whole data set: some 33,000 sequences, median “E-score (-0.5 to 0.5)” near -0.016, cut for the highest 2% near 0.31. This is one part of the list.

molecular target: Cst6 (UniProt P40535); experiment: PBM E-score (8-mer binding enrichment) (E-score (-0.5 to 0.5)); higher = stronger / more preferred TF binding; most listed sequences are background and not binding sites; details: protein concentration: 200 nM; construct: GST-DNA-binding domain
Summary of the method: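 E-scores (a modified Wilcoxon-Mann-Whitney statistic) were assigned by the Universal PBM Analysis Suite to every ungapped eight-base word pooled with its reverse complement. The input came from universal all-10-mer Agilent arrays made double-stranded by primer extension and probed with GST-tagged yeast transcription factors at about 100-200 nM. Fluorescent anti-GST detected bound protein, and masliner normalised the scans.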

Sequence	PBM E-score
CAGTTTAG	-0.044
CAAACCTC	-0.272
AACGCTCA	-0.065
CCACTTAG	-0.16
CCTGCCCC	-0.337
CTATTATC	0.198
CTCTAAGA	-0.022
GACTCAAA	-0.0282
CAATCTGC	-0.0282
GATGAGTA	0.123
CAGCGTCC	-0.207
CAAACACC	-0.0632
ATTCCGGC	-0.169
AATTTGTA	0.197
TAGCTCGA	-0.171
CCTTCTGC	-0.255
AATTCGCG	0.165
AGGATAAA	0.079
ACCAACGC	-0.192
AGGAAACA	0.14
CTGATGGC	-0.113
ATTGTTAG	0.129
GTATTCTA	0.223
AATCAGCA	0.157
ACAACATA	0.204

Sequence	PBM E-score
GACGACCA	0.0279
CTGCTCAC	-0.111
GAACTGTA	0.137
CTGTCAAC	0.082
GGCATCAA	0.0768
CAAATAGG	0.00845
CCATCACG	0.0583
ACACGACC	-0.0934
GTAGTGCA	-0.0152
AGACTTGG	-0.29
GCCGGTAA	-0.0726
CCGGCCTC	-0.315
CATCTCGA	-0.0257
ATAGTTCC	-0.0337
AACTAACT	0.00159
GCAGAACC	-0.134
CAAATTCG	0.054
TCAAAAGA	0.0475
ACCTGCGA	-0.26
ACTCGATG	0.0543
CAGGCCTG	-0.137
CGCAGGGA	-0.217
CCTCAGGA	-0.135
AAAACCCA	0.0969
GCTCGCAA	0.0482

Sequence	PBM E-score
ACTGGGTG	-0.142
ACTCTTTC	0.0185
CCTTCTGA	-0.0392
ATCTAGAA	0.0563
ATGATAAA	0.307
CCCCAAAA	-0.0256
ATATACGG	0.194
CATCTAGG	-0.153
CTTCGTAA	-0.0175
CCTAATAA	0.00168
ATAAGCCC	-0.212
GGATACGA	-0.0261
GACAGAGC	-0.182
AACTGGGA	-0.0713
GCTACCCA	-0.317
AAAAAGGG	0.0128
AGGGAAAA	0.0747
AGAGGGTC	-0.381
CTGCATTC	-0.0773
CAACACAC	0.0848
AAGTCGTC	-0.0649
TACCCCTA	-0.135
ATATCAAA	0.153
TAGATCTA	0.154
AGCCGTTC	0.0848

Sequence	PBM E-score
CGCAAGCG	-0.1
GGTCGGAC	-0.199
AGTGTAGA	-0.102
GCACACGA	-0.0195
CGAGGGCA	-0.0872
ATCGCTAA	0.0468
ACACAACG	0.21
ACTAGACC	0.0503
AACTCGCC	-0.0101
ATCGGTGC	-0.112
AATCATTC	0.204
ACTTACCG	0.108
CACCTGTA	-0.171
GGAGGCAC	0.00729
ATACAAAG	0.151
AAGCCGTA	0.173
GTGGGTCA	-0.138
AAGGCAGT	0.0518
AAGGCATA	0.0537
ACGCATGG	-0.0922
GATATCGC	0.1
ACGTACGG	0.149
GAATAGAA	0.189
AGACCGAA	0.148
CTGCTAAG	-0.279

Sequence	PBM E-score
AACAGCGT	0.05
CAAACCCC	-0.178
CGTGACGC	0.436
AATCAGCT	0.186
ACAAAGAA	0.247
GAATAAGC	-0.0595
GATCGGAA	-0.108
ATTAACTG	0.24
GATAATGC	0.0433
GTCTCCTA	-0.133
CTGAGGCC	-0.161
TGCTAGAA	-0.0779
AGTTGCTA	0.102
CAGACACA	0.0923
CACGGGCG	-0.139
CTAGGGTC	-0.241
AGGCACAG	-0.0933
ATCGGTAA	0.135
AGCCTTGA	-0.0193
CGAATAAA	0.154
CGAGGCAA	0.151
TCACTCGA	0.158
CGCACGCA	-0.056
CAGGGACA	-0.119
GTATTTCA	0.196

Sequence	PBM E-score
AGCTCGGA	-0.261
ACGGATTC	0.0332
TATGCGGA	-0.00967
AGACGGGC	-0.128
AAGTCTCT	-0.212
ATCTACAG	0.0349
CAATGTGA	0.242
GAGCTCAC	0.046
GCTGGCCA	-0.231
CCTACTTA	0.00339
ACAGACAA	0.206
ACCAAGGT	-0.0517
TCTGTAAA	0.0688
ACCATCCT	0.00882
AAATATCG	0.166
CGCTGGGA	-0.331
AGTGTTGG	-0.0779
GAGGCGCC	0.171
CGTTGTTA	0.228
CGAGTACG	-0.0588
CAACTACG	0.0911
TAGGAAGA	-0.256
CACCCCAC	0.0277
AGGATACT	-0.0963
ACGCATTA	0.126

Sequence	PBM E-score
AGAATAGA	0.0439
ACCAGCAT	-0.104
ATTTAGGG	0.13
CCGTCACC	0.411
ACATCAGG	0.163
AGAGGGCT	-0.381
AACGTTCT	-0.0688
ATGCCATA	0.118
ACGGAAGT	0.0136
CGGATGTC	-0.0678
TCGACAGA	-0.146
CGCGACCC	-0.0916
CAATTCTG	-0.0283
TGCTAAAA	0.0547
GCTGAATA	0.0801
AATGGTCA	0.106
AAAAAAGC	0.177
CACTATCC	-0.0761
CCGATGGC	-0.184
GATCGGCA	-0.00629
GATTGCTA	-0.0542
AGCCCTTG	-0.222
TAGATCGA	0.0266
GGGAGAAC	-0.274
ATTGTTTG	0.245

Sequence	PBM E-score
TCAGTTCA	0.0549
GTGTGAAC	-0.0473
AACCCTGT	-0.169
AAGGTAAC	0.142
ACTTGCAA	0.122
TGGGCACA	0.135
ATGGGCAA	-0.201
CCACTGCC	-0.146
CTCAAGAA	-0.0835
GGATGAAA	0.11
CATGGAAC	-0.192
CTTCTAGC	-0.323
AACGCAAA	0.166
ATAACGCG	0.105
GCATTAAA	0.163
CGGCGTAC	0.165
GATAGCGC	-0.152
AGATGGCC	-0.0799
ACTACTCG	0.0537
CCGAAGGC	-0.236
ACAAAAAT	0.279
AACACCAT	0.135
AGAAGTGA	0.0777
ATCTTAGC	-0.013
ATGATCAC	0.186

Sequence	PBM E-score
AACATATT	0.173
GGTCATTA	0.178
CACCGTGA	0.00413
ACGCCGCT	0.233
ACCCGCAG	0.0209
AAACCTAC	0.0437
CATAGTCC	-0.105
AGAACCAT	0.114
GATCTGCA	-0.168
TAATTTAA	0.287
ACGCAAGC	0.0892
TCTTCTAA	0.0328
AGCAGTTA	0.0215
CTTCTCTA	-0.169
AATACCTC	0.0348
AAGCCGCC	-0.157
ACTAAGGG	-0.247
AGAGTACC	-0.135
GCACCACA	-0.0967
TAACGAGA	0.159
AGCACCAG	-0.0966
CCGCCTCC	-0.227
AAGTTCTA	-0.172
CGACCTTA	0.0749
AATAGGTA	0.0621

Sequence	PBM E-score
AAAACCAT	0.144
AGATGTGC	-0.0582
TTATTGAA	0.128
CGGTGGCA	-0.151
GCCGCTAA	0.0534
AGCTGTAC	-0.285
ATTCATGG	0.0757
CAATTCTA	0.069
ACCTGCAA	-0.179
CGCCAAGA	-0.161
ATACATGA	0.176
CCCATGGA	-0.219
CATTGAAA	0.241
CGCTTGTA	0.0352
GAGTCACC	0.0602
ACCTAGGA	-0.167
GCCGGCAA	-0.108
AAAGGGAG	-0.152
CTATTGTA	0.133
ACACTGGG	-0.312
ATATCTTA	0.114
ACGCCAGG	-0.193
AACTTACT	-0.041
GGAATGCC	0.0445
TCATCTCA	0.159

Sequence	PBM E-score
CCGATGTC	-0.0711
CAGCTAAC	-0.19
TACGTTAA	0.189
AGAATCTC	-0.0515
CGTACCCA	0.0246
GCTCATTA	0.0545
ATTACGGC	0.266
GTTGGAAA	0.0394
CATTTGCG	0.258
AGTGCGAA	-0.154
CTAGCCAA	0.0159
AATACTCT	0.0681
ATCCCTCA	0.0332
ACGTCCAG	-0.229
AGAAGACT	-0.23
ATAATTTA	0.304
CAGAGTTA	0.207
CGACCGTA	-0.236
ACGATTGA	0.125
CCACCCGA	-0.0893
GGGTTCCA	-0.312
ACTGCAGG	-0.194
GAGCCCTC	-0.323
GTGCTATA	0.0846
CTTCAAGC	-0.0666

Sequence	PBM E-score
AGGCATAT	0.182
ATAGGAAC	-0.0415
GGTATACA	-0.0479
CCGGCCCG	-0.238
AAACAGAG	0.123
ATACCTTG	-0.0121
AAATCTAT	0.213
GCCCATAC	-0.0375
TGGCGGAA	-0.201
TCCCCCAA	-0.29
ACCGGAAA	-0.0603
GGATTTAA	0.119
CTGTGATC	-0.00162
CAGAGCAA	-0.0363
CCGGAACC	-0.247
CATGACTC	0.0297
CTGGTGCA	-0.129
GATTATAC	0.112
AAGCCAGG	-0.174
ATCCCCGC	-0.166
CTACTCGC	-0.103
TGCTGCAA	0.159
CCGACCAG	-0.184
ATAGGTGA	0.157
AACCTTGA	0.138

Sequence	PBM E-score
CGCCGGAA	-0.127
ACCGGCCT	-0.168
CTGTCCCC	-0.408
GACACCAA	0.0823
ATAATCTA	0.0831
GGCGTCCC	-0.225
CGCCCTAA	-0.163
CAGCCAGC	-0.246
ATAAGACC	-0.135
ACCGCGCC	0.0276
AGTGAACC	-0.0808
CACGAAAG	0.0816
GTCTTAAA	-0.118
CATACGTC	0.405
GACTGTCA	-0.0389
CAAGGGAA	-0.137
CTTTAATC	0.0364
CAGAAGTC	-0.0882
TATAGCAA	0.0214
CATGATAG	0.0616
CAAAGCGA	-0.0448
CCTTGCTC	-0.266
CGAACTTC	0.0142
AATTCGTG	0.111
ATGCACAC	0.053

Sequence	PBM E-score
AGATTAAT	0.086
CCCACGGA	-0.182
AAGGGTGT	-0.0767
ATGGTACG	0.103
GGTCTCAC	-0.0997
AATACGGA	0.14
GGCGCCTA	0.244
CTTTGTTC	0.126
AACGAGAG	0.0905
TAGAGCTA	-0.122
CAGATTAA	0.175
AACCGTAA	0.0115
GTCTGAAA	0.101
ACCCCAGA	-0.104
AGCTGCCG	0.0192
AGACCCAG	-0.143
GTCTACAA	-0.054
ACCCGCCA	-0.194
CTCGGACC	-0.18
